# Laboratory results from PubChem BioAssay AID485294 (National Center for Advancing Translational Sciences (NCATS), 2010).
# Screen size: about 370,000 compounds; about 150 (0.041%) were called active. The inconclusive results got no clear call from the source; some entries with a clear call stand among them for comparison. Calls come from the whole dose curve; as a rule, active = well fitted inhibition curve with a large enough effect; inconclusive = small, poorly fitted or top-dose-only effect; inactive = flat fitted curve, though single readings scatter. Potencies of inconclusive entries are left out as doubtful fits.
# Target: Beta-lactamase (Escherichia coli (strain K12)) (UniProt P00811)
# UniProt P00811, sequence (P00811 whole entry, looked up): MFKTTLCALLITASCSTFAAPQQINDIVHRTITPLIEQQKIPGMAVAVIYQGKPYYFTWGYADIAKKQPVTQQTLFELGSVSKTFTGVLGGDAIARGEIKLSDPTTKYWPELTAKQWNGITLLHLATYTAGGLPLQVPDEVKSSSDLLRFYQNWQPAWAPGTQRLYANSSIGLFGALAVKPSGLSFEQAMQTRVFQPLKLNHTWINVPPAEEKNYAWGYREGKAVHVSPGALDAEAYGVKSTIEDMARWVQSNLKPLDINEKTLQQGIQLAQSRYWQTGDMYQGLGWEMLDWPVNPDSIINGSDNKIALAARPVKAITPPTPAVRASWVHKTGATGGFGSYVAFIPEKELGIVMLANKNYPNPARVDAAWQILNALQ
# Experiment: qHTS Inhibitors of AmpC Beta-Lactamase (assay with detergent); note: nearly all actives have a fitted effect of over 25% in size;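 for activity change, negative = inhibition: 0% = no-compound wells and -100% = no-enzyme wells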
# Details: AmpC hydrolysis of nitrocefin, absorbance 480 nm, 0.01% Triton; activity change, negative = inhibition: at 114 µM (top of the series)
# Summary of the method: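 20 mM phosphate pH 7.0 + 0.01% (detergent screen) or 0.0001% Triton X-100; 5.3 nM AmpC reagent; cpd preinc 15 min RT; nitrocefin (800 uM stock) to start; A480 q20 s × 4 min; Activity was normalised to no-enzyme and no-compound control wells.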
# Potency is the fitted concentration of half-maximal effect; tags give direction and shape of the fitted curve.
Compound,Potency,"activity change, negative = inhibition"
CC(=O)c1ccc(NC(=S)Nc2ccn(Cc3ccc(Br)cc3)n2)cc1,"inconclusive [inhibitor, full curve, poor fit]",
O=C(OCCN1C(=O)c2ccccc2C1=O)c1cccc(OC(F)F)c1,"inconclusive [inhibitor, full curve, poor fit]",
O=S(=O)(/C=C/c1ccccc1)n1cnc2ccccc21,"inconclusive [inhibitor, full curve, poor fit]",
COc1ccc(-c2oc3ccccc3c2C(=O)OCc2ccccc2OC)cc1,"inconclusive [inhibitor, full curve, poor fit]",
CCCS(=O)(=O)Nc1ccc(-c2cn3c(n2)SCC3)cc1,"inconclusive [inhibitor, partial curve, poor fit]",
CCc1ccc(NC(=O)CN(c2ccc3c(c2)OCO3)S(=O)(=O)c2c(C)noc2C)cc1,"inconclusive [inhibitor, full curve, poor fit]",
CCN(CC)CCCNC(=O)C1CCN(c2ncnc3c2sc2cccc(F)c23)CC1,,inactive: 1.91%
Nc1ccc2oc(-c3ccccn3)nc2c1,"inconclusive [inhibitor, single point]",
O=C(Nc1ccc(C(=O)N2CCCc3ccccc32)cc1)c1cccs1,"inconclusive [inhibitor, partial curve]",
Cc1c(NC(=O)c2ccc(Cl)nc2)cccc1-c1nc2cccnc2s1,,inactive: 4.37%
NNc1nc(-c2ccccc2)cc(-c2ccc(Br)cc2)n1,"inconclusive [inhibitor, full curve, poor fit]",
CCCCc1ccc(Nc2ncnc3nc[nH]c23)cc1,"inconclusive [inhibitor, full curve, poor fit]",
CC(C)(C)c1ccc(C(=O)Nn2c(CCC(=O)O)ccc2-c2cccs2)cc1,,inactive: 4.32%
Cc1cc(Cl)c(OCCCn2cncn2)c(Br)c1,"inconclusive [inhibitor, partial curve]",
CC1CCC(N2CCN(S(C)(=O)=O)CC2)CC1 (stereo not drawn),"inconclusive [inhibitor, full curve, poor fit]",
COc1ccc(C(=O)OCC(=O)c2cc(OC)ccc2OC)c(OC)c1,"inconclusive [inhibitor, full curve]",
COc1cc(SC)ccc1C(=O)Nc1ccc(S(=O)(=O)N2CCCC2)cc1,"inconclusive [inhibitor, partial curve, poor fit]",
Cc1ccc(Cn2c(C(=O)O)c(CNC3CCCCCC3)c3ccc(C)cc32)cc1,,inactive: -5.49%
CC(=NCC1CCCO1)c1c(O)n(-c2ccc(C)cc2)c(=O)[nH]c1=O (stereo not drawn),,inactive: 0.814%
COc1cccc(N2C(=O)C3CC=C(Cl)CC3C2=O)c1 (stereo not drawn),,inactive: -10.2%
O=C(NCc1ccc(F)cc1)c1cnn2ccccc12,,inactive: -13.4%
COc1cccc(/C=N/N2CCN(c3ccc(Cl)cc3)CC2)c1OC,"inconclusive [inhibitor, full curve, poor fit]",

Compound,Potency,"activity change, negative = inhibition"
CCc1cccc(NC(=O)CN(c2ccc(C)cc2)S(=O)(=O)c2cccs2)c1,,inactive: 6.45%
Cc1cccc(NC(=O)c2ccc(OCc3c(C)noc3C)cc2)n1,"inconclusive [inhibitor, full curve, poor fit]",
CCCNC(=O)CNC(=S)N(Cc1ccccc1F)C1CCCCC1,"inconclusive [inhibitor, full curve, poor fit]",
CCOC(=O)c1ccccc1NC(=O)COC(=O)c1c(CC)noc1C,"inconclusive [inhibitor, full curve, poor fit]",
O=C1c2ccccc2C(=O)N1CC1c2ccccc2CCN1C(=O)C1CCCCC1 (stereo not drawn),,inactive: 23.4%
Cc1cccc2cc(CN(Cc3cccs3)C3(c4nnnn4C4CCCC4)CCCC3)c(=O)[nH]c12,"inconclusive [inhibitor, partial curve, poor fit]",
CC(CCc1ccccc1)NC(=O)CCNS(=O)(=O)c1ccccc1C(F)(F)F (stereo not drawn),"inconclusive [inhibitor, full curve, poor fit]",
COC(=O)[C@@]12CCCN1[C@H](c1ccc(-c3ccc(C(C)=O)cc3)c(OC)c1)[C@H]1C(=O)N(C)C(=O)[C@H]12,,inactive: -9.39%
CC(=O)c1cccc(NC(=S)NCCC2=CCCCC2)c1,"inconclusive [inhibitor, full curve, poor fit]",
CCn1nc(C(=O)NNC(=O)COc2ccccc2C)c2ccccc2c1=O,"inconclusive [inhibitor, full curve, poor fit]",
O=C(NCc1ccc(F)cc1)c1ccc(CS(=O)(=O)Cc2ccccc2F)o1,"inconclusive [inhibitor, full curve]",
N#Cc1c(Cl)nc(Cl)c2c1CCN(Cc1ccccc1)C2,"inconclusive [inhibitor, single point]",
CCOC(=O)CSc1nnc(-c2ccccc2)o1,"inconclusive [inhibitor, single point]",
CCNC(=S)NNC(=O)c1ccoc1C,,inactive: -2.23%
Cc1ccc2nc(NC(=O)CSc3nc(=O)n(CCN(C)C)c4c3CCCC4)sc2c1,"inconclusive [inhibitor, single point]",
CCCn1c(/N=C/c2cc(OC)ccc2O)nc2ccccc21,"inconclusive [inhibitor, partial curve]",
CC(=O)Nc1ccc(S(=O)(=O)N2CCN(c3cc(C)nc4ccccc34)CC2)cc1,"inconclusive [inhibitor, full curve, poor fit]",
O=C1NC(=O)C(Cc2cccs2)C(=O)N1,"inconclusive [inhibitor, full curve]",
CCOC(=O)N1CCN(S(=O)(=O)c2ccc(C(=O)N(CCN(CC)CC)c3nc4ccc(C)cc4s3)cc2)CC1,"inconclusive [inhibitor, partial curve, poor fit]",
CCC(OC(=O)CC1Sc2ccccc2NC1=O)C(=O)NCC1CCCO1 (stereo not drawn),,inactive: -15.5%
CC(C)(C)n1nnnc1C(c1cccs1)N(Cc1ccccc1)Cc1ccco1 (stereo not drawn),"inconclusive [inhibitor, full curve, poor fit]",
